Source: patent publication US20240076343A1 (CEPHALON, published 2024)
Where a chain is given by its changes, count along the chain named. Numbers in names are those of the source.

B1: 1H3-hIgG4-L6-hIL-2 (D20A/R38E) LC fusion (other)
heavy: EVQLVESGGGLVQPGRSLKLSCAVSGFTFSDYAMAWVRQAPKKGLEWVATISYDGSRTYYRDSVKGRFTISRDNAKITLYLQMDSLRSEDTATYYCARHGSGYFDYWGQGVMVTVSSASTKGPSVFPLAPCSRSTSESTAALGCLVKDYFPEPVTVSWNSGALTSGVHTFPAVLQSSGLYSLSSVVTVPSSSLGTKTYTCNVDHKPSNTKVDKRV[not shown - human IgG4 Fc with S228P (EU numbers)]
light: DTVLTQSPALAVSPGERVTISCRASESVRTGVHWYQQKPGQQPKLLIYGASNLESGVPARFSGSGSGTDFTLTIDPVEADDTATYFCQQSWNDPFTFGSGTKLEIKRTVAAPSVFIFPPSDEQLKSGTASVVCLLNNFYPREAKVQWKVDNALQSGNSQESVTEQDSKDSTYSLSSTLTLSKADYEKHKVYACEVTHQGLSSPVTKSFNRGECSGGGGS[not shown - about 150 residues with changes]
B2: C51E6-5-hIgG4-df-hIL-2 (D20A/R38E) (other)
heavy: QVQLVQSGSELKKPGASVKVSCKASGYSLYGTSMHWVRQAPGQGLEWMGYISPFTGRATYAQGFTGRFVFSLDTSVSTAYLQISSLKAEDTAVYYCARDYDYRYYYAMDYWGQGTTVTVSSASTKGPSVFPLAPCSRSTSESTAALGCLVKDYFPEPVTVSWNSGALTSGVHTFPAVLQSSGLYSLSSVVTVPSSSLGTKTYTCNVDHKPSNTKVDKRV[not shown - about 350 residues with a human IgG4 Fc and changes]
light: EIVLTQSPDFQSVTPKEKVTITCTASESVPPQFLHWYQQKPDQSPKLLIYASRERASGVPSRFSGSGSGTDFTLTINSLEAEDAATYYCHQFHRSPLTFGGGTKLEIKRTVAAPSVFIFPPSDEQLKSGTASVVCLLNNFYPREAKVQWKVDNALQSGNSQESVTEQDSKDSTYSLSSTLTLSKADYEKHKVYACEVTHQGLSSPVTKSFNRGEC
B3: H7-767 (other)
heavy: EVQLLESGGGLVQPGGSLRLSCAASGFTFKSYAMHWVRQAPGKGLEWVSAIVYSGGSTYYADSVKGRFTISRDNSKNTLYLQMNSLRAEDTAVYYCAKYDRASYFYDAMDVWGQGTTVTVSS[not shown - human IgG1 constant region with L235A G237A (EU numbers)]APASSSTKKTQLQLEHLLLALQMILNGINNYKNPKLTEMLTFKFYMPKKATELKHLQCLEEELKPLEEVLNLAQSKNFHLRPRDLISNINVIVLELKGSETTFMCEYADETATIVEFLNRWITFAQSIISTLT
light: EIVLTQSPGTLSLSPGERATLSCRASQSISSSFLAWYQQKPGQAPRLLIYDASDRATGIPDRFSGSGSGTDFTLTISRLEPEDFAVYYCQQYYDWPPLSFGGGTKVEIKRTVAAPSVFIFPPSDEQLKSGTASVVCLLNNFYPREAKVQWKVDNALQSGNSQESVTEQDSKDSTYSLSSTLTLSKADYEKHKVYACEVTHQGLSSPVTKSFNRGEC
B4: 2H7-hIgG1-LAGA-df-hIL2 (T3A/D20S/R38E/C125A) (other)
heavy: EVQLLESGGGLVQPGGSLRLSCAASGFTFKDYCMTWVRQAPGKGLEWVSAIVYSGGSTYYADSVKGRFTISRDNSKNTLYLQMNNLRAEDTAVYYCAKYTRASYFYDAMDVWGQGTTVTVSS[not shown - human IgG1 constant region with L235A G237A (EU numbers)]APASSSTKKTQLQLEHLLLSLQMILNGINNYKNPKLTEMLTFKFYMPKKATELKHLQCLEEELKPLEEVLNLAQSKNFHLRPRDLISNINVIVLELKGSETTFMCEYADETATIVEFLNRWITFAQSIISTLT
light: B3 light with S30G, S31K, D54T, T57A, G58D, D61A, R78S
B5: 2H7-hIgG1-LAGA-df-hIL2 (T3A/R38E/I92S/C125A) (other)
heavy: EVQLLESGGGLVQPGGSLRLSCAASGFTFKDYCMTWVRQAPGKGLEWVSAIVYSGGSTYYADSVKGRFTISRDNSKNTLYLQMNNLRAEDTAVYYCAKYTRASYFYDAMDVWGQGTTVTVSS[not shown - human IgG1 constant region with L235A G237A (EU numbers)]APASSSTKKTQLQLEHLLLDLQMILNGINNYKNPKLTEMLTFKFYMPKKATELKHLQCLEEELKPLEEVLNLAQSKNFHLRPRDLISNINVSVLELKGSETTFMCEYADETATIVEFLNRWITFAQSIISTLT
light: B3 light with S30G, S31K, D54T, T57A, G58D, D61A, R78S
B6: 2H7-hIgG1-LAGA-df-hIL2 (T3A/R38E/I92D/C125A) (other)
heavy: EVQLLESGGGLVQPGGSLRLSCAASGFTFKDYCMTWVRQAPGKGLEWVSAIVYSGGSTYYADSVKGRFTISRDNSKNTLYLQMNNLRAEDTAVYYCAKYTRASYFYDAMDVWGQGTTVTVSS[not shown - human IgG1 constant region with L235A G237A (EU numbers)]APASSSTKKTQLQLEHLLLDLQMILNGINNYKNPKLTEMLTFKFYMPKKATELKHLQCLEEELKPLEEVLNLAQSKNFHLRPRDLISNINVDVLELKGSETTFMCEYADETATIVEFLNRWITFAQSIISTLT
light: B3 light with S30G, S31K, D54T, T57A, G58D, D61A, R78S
B7: 2H7-hIgG1-LAGA-df-hIL2 (T3A/H16E/R38E/C125A) (other)
heavy: EVQLLESGGGLVQPGGSLRLSCAASGFTFKDYCMTWVRQAPGKGLEWVSAIVYSGGSTYYADSVKGRFTISRDNSKNTLYLQMNNLRAEDTAVYYCAKYTRASYFYDAMDVWGQGTTVTVSS[not shown - human IgG1 constant region with L235A G237A (EU numbers)]APASSSTKKTQLQLEELLLDLQMILNGINNYKNPKLTEMLTFKFYMPKKATELKHLQCLEEELKPLEEVLNLAQSKNFHLRPRDLISNINVIVLELKGSETTFMCEYADETATIVEFLNRWITFAQSIISTLT
light: B3 light with S30G, S31K, D54T, T57A, G58D, D61A, R78S

These binders were tested against T1, intermediate-affinity hIL-2 receptor (IL-2Rβγ) on TF1+IL-2Rβ cells (human, UniProt P14784 27-551; P31785 23-369) (assay: cell-based or functional assay).
T1 sequence 1: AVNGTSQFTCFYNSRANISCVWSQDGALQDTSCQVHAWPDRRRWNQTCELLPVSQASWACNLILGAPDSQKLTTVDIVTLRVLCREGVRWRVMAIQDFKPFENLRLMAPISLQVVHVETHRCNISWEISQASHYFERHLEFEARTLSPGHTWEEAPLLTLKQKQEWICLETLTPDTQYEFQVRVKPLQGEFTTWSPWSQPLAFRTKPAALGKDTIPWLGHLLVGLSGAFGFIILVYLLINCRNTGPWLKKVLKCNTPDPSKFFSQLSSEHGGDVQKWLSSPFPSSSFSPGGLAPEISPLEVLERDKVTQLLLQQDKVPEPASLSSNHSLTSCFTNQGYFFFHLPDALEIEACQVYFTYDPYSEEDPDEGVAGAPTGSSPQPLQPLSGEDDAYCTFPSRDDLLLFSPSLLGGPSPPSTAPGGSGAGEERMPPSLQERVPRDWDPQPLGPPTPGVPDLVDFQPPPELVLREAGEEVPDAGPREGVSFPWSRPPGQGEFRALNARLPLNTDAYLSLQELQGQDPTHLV
T1 sequence 2: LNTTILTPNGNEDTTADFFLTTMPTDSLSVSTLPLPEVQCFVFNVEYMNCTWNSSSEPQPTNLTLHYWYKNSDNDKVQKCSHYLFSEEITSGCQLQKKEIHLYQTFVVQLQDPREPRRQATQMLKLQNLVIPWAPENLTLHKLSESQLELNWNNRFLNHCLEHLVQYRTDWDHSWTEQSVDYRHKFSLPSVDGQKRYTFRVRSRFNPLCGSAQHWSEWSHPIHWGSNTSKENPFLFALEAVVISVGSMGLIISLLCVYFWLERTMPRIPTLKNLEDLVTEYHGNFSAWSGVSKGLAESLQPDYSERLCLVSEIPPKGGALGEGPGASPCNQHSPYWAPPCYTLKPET

Binder | Agonistic Activity (TF1 + IL-2Rβ) [%] | Fold change from rhIL-2 (TF1 + IL-2Rβ) [fold]
B1 | 30 | ~2160
B2 | 60 | > 10000
B3 | – | > 10000
B4 | 70 | ~9710
B5 | – | 30
B6 | 80 | ~3400
B7 | – | 122

What follows are binders tested against T2, high-affinity hIL-2 receptor (IL-2Rαβγ) on NK-92 cells (human, UniProt P01589 22-272; P14784 27-551; P31785 23-369) (assay: cell-based or functional assay).
T2 sequence 1: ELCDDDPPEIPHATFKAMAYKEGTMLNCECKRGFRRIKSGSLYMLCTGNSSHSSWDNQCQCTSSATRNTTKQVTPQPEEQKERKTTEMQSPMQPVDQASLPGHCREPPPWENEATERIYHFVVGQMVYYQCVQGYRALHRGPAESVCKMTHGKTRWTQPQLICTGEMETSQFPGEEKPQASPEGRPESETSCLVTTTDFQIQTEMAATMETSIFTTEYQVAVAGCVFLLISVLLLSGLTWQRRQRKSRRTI
T2 sequence 2: T1 sequence 1
T2 sequence 3: T1 sequence 2

Binder | Fold change from rhIL-2 (NK-92) [fold] | Agonistic Activity (NK-92) [%]
B1 | > 10000 | –
B2 | 4320 | 70
B3 | > 10000 | –
B4 | 6690 | –
B5 | 9 | –
B6 | 2720 | –
B7 | 126 | –
